Measurements as given in PubChem BioAssay (NCI).
“And” between values parts separate entries of the source, which are not always exact repeats. Equal entries are not always repeated.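 Results reflect a 48-hour exposure of cells in 96-well plates to compound at five concentrations. GI50 is the concentration that inhibits growth by half. TGI denotes the concentration required for complete inhibition of growth.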

tested on: NCI-H322M lung; test: NCI tumour cell line growth inhibition, 48 h

SMILES | GI50 | TGI
c1ccc(CNC2CC(NCc3ccccn3)CC(NCc3ccccn3)C2)nc1 (stereo unspecified) | 2.89 µM and 7.69 µM and 2.39 µM | 8.15 µM and 25 µM and 5.6 µM
CCOc1ccc(NC(=O)CC2SC(=Nc3ccc(Cl)cc3)NC2=O)cc1 (stereo unspecified) | – | > 100 µM
CCOC(=O)c1cnc(-n2[nH]c(C)c(CCO)c2=O)[nH]c1=O | – | > 100 µM
O=S(=O)(Oc1ccc2oc3ccccc3c2c1-c1c(OS(=O)(=O)C(F)(F)F)ccc2oc3ccccc3c12)C(F)(F)F | – | > 100 µM
CN1C/C(=C\c2cccs2)C2=NC(=S)NC(c3cccs3)C2C1 (stereo unspecified) | – | > 100 µM
Cn1cnc([N+](=O)[O-])c1Sc1nc2cc(Cl)c(F)cc2[nH]1 | – | > 100 µM
CC(=O)N1CCN(C2=Nc3ccccc3CO2)C1=S | > 100 µM | > 100 µM
CCOc1ccc2nc(NC(=O)C(=O)C(C(=O)c3ccccc3-c3ccccc3)C3OC(=O)c4ccccc43)sc2c1 (stereo unspecified) | – | 57.9 µM
CC(C)=CCN=C(N)N | – | > 100 µM
O=C(NCCCCCCCCNC(=O)c1cnc2ccccc2n1)c1cnc2ccccc2n1 | – | > 100 µM
Cc1c2cc[nH]c(C(F)(F)F)c2cc2c1nc1ccccc12 | – | > 125 µM
COc1cc2c(cc1OCCCN1CCN(CCCOc3cc4c(cc3OC)C(=O)N3CCC[C@H]3C=N4)CC1)C=CC(C)(C)O2 | 1.48 µM | 2.87 µM
C=CCC1OC(C)(C)Oc2ccc(OCOCCOC)cc21 (stereo unspecified) | – | > 100 µM
CC1(C)O[C@H]2Cn3c(c(C#N)c4ccccc43)[C@H]2O1 | – | > 100 µM
COC(=O)[C@H](Cc1ccccc1)NC(=O)c1ccc(CNC(=O)/C=C/c2ccc(-c3ccccc3)cc2)cc1 | – | > 100 µM
CC1=NN(c2nc(N)nc(-c3ccccc3S(N)(=O)=O)n2)C(C)(C)C1 | – | > 100 µM
Cc1ccc(C)n1-c1ccccc1C1SCCCS1 | – | > 100 µM
CCCN(CCC)CCCNCc1cc(I)cc(C)c1O | 15.7 µM | 30.1 µM
O=P([O-])(O)OP(=O)([O-])O.[NH-][C@H]1CCCC[C@@H]1[NH-].[OH-].[OH-].[Pt+4] | 26.1 µM | 80.9 µM
CN(C)c1ccc2c(c1)C(=O)N(OS(=O)(=O)c1ccc([N+](=O)[O-])cc1)C2=O | – | > 100 µM
O=C1Oc2ccccc2C(=O)/C1=C/N1C(=O)N/C(=C\c2ccccc2O)C1=O | – | > 100 µM
